Reference: PubChem BioAssay AID1479 (National Center for Advancing Translational Sciences (NCATS), 2009)
Out of some 280,000 compounds screened, about 820 (0.29%) were called active. The inconclusive results got no clear call from the source; some entries with a clear call stand among them for comparison. The call rests on the fitted dose curve; in most records, active means well fitted curve in either direction with a large enough effect; inconclusive means small, poorly fitted or top-dose-only effect; inactive means flat fitted curve, though single readings scatter. No potency is given beside an inconclusive call; the fits are too rough.

experiment: Total Fluorescence Counterscreen for Inhibitors of the Interaction of Thyroid Hormone Receptor and Steroid Receptor Coregulator 2; conditions: TRb/SRC2 Texas Red total fluorescence interference; series mostly up to 106 µM
Procedure, shortened: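 Flags fluorescent or light-absorbing compounds by total fluorescence, S + 2P, at 555 nm excitation and 632 nm emission. Mixture: 20 nM Texas Red SRC2 peptide, 0.6 uM human TRb LBD, 1 uM T3, 5% DMSO; compound exposure 5 h at ambient temperature.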
Potency means the concentration at half of the fitted maximal effect; tags describe the fitted curve by direction and shape or compound fluorescence and quenching.

| Compound | Potency |
| --- | --- |
| CC(C)(C)NC(=O)C(c1ccncc1)N(Cc1ccco1)C(=O)c1ccc(-c2ccccc2)[nH]1 (stereo not drawn) | inactive |
| COc1ccc(NC(=O)CN(Cc2ccccc2)S(=O)(=O)c2ccc3nc(C)sc3c2)cc1 | inconclusive |
| CC(=O)NCC(=O)NC(C(=O)Nc1ccc2c(c1)OCCO2)c1ccccc1 (stereo not drawn) | inactive |
| CCOC(=O)CN1C(=O)S/C(=C/C=C/c2ccc(N(C)C)cc2)C1=O | inconclusive [fluorescent, full curve] |
| CCOc1ccc(-c2c(C)nn3c(C)c(C(=O)NCc4ccc(Cl)cc4)cnc23)cc1OCC | active: 251 µM [quencher] |
| O=C(c1ccc(Cl)cc1)c1cc([N+](=O)[O-])ccc1N1CCOCC1 | inactive |
| Cc1ccc(C(C2=C(O)CC(C)(C)CC2=O)C2C(=O)CC(C)(C)CC2=O)o1 (stereo not drawn) | inactive |
| Brc1ccc(-c2ccc(/C=N/Nc3nc(N4CCOCC4)nc(N4CCOCC4)n3)o2)cc1 | inactive |
| O=C1NC(O)=NC1(c1ccccc1)c1ccccc1 | inconclusive [quencher, full curve] |
| Cc1ccccc1NC(=S)NCC(c1cccnc1)N(C)C (stereo not drawn) | inconclusive [falling, partial curve, poor fit] |
| Nc1oc2ccccc2c(=O)c1C=O | inconclusive [falling, full curve, poor fit] |
| COC(=O)c1ccc(C2C=C(c3ccc(Cl)cc3)Nc3nc4ccccc4n32)cc1 (stereo not drawn) | active: 0.141 µM [quencher] |
| N#Cc1cccc(NC(=O)C2CCN(c3cnccn3)CC2)c1 | inconclusive [falling, partial curve, poor fit] |
| Cn1ccc2cc(S(=O)(=O)N3CCCC(C(=O)NCc4ccc(F)cc4)C3)ccc21 (stereo not drawn) | inconclusive [falling, full curve, poor fit] |
| CCOC(=O)C1CCN(C(=O)c2c(-c3ccccc3)noc2C)CC1 | inactive |
| COC(=O)c1ccc2c(c1)C(C)(C)C(/C=C/c1ccc(O)cc1)=[N+]2C | inconclusive [rising, partial curve, poor fit] |
| COC(=O)CNC(=O)N1CCN(S(=O)(=O)c2ccc3c(ccn3C)c2)CC1 | inconclusive [falling, full curve, poor fit] |
| COc1cccc(C(=O)N(Cc2ccco2)c2ccccn2)c1 | inconclusive [falling, full curve, poor fit] |
| O=C(O)CCCNC(=O)CCn1nnc2ccccc2c1=O | inactive |
| COc1ccc(N2C(=O)/C(=C\c3ccco3)N=C2SCC(=O)NC(C)(C)C)cc1Cl | inconclusive [falling, full curve, poor fit] |
| CCc1cccc(CC)c1NC(=O)COC(=O)C1(c2ccc(Cl)cc2)CCCC1 | inconclusive [falling, full curve, poor fit] |
| CC(C)O/N=C1\C(=O)N(c2ccccc2)c2ccccc21 | inactive |

| Compound | Potency |
| --- | --- |
| O=C(COC(=O)c1c2c(nc3ccccc13)/C(=C/c1ccco1)CC2)NC1CCCC1 | inconclusive [quencher, full curve] |
| COc1ccc(-c2noc(-c3ccc(C)cc3Cl)n2)cc1OC | active: 0.126 µM [quencher] |
| CS(=O)(=O)n1nc(-c2ccco2)nc1NCc1ccccc1Cl | inconclusive [falling, full curve, poor fit] |
| Cc1cc(C)cc(NC(=O)OCCN2CCN(Cc3ccccc3)CCC2=O)c1 | inconclusive [falling, full curve, poor fit] |
| COc1cccc(NC(=O)CC2S/C(=N\S(=O)(=O)c3ccccc3)N(c3ccccc3)C2=O)c1 (stereo not drawn) | inactive |
| Cc1nc2ccccc2c(=O)n1/N=C/c1ccc(N(C)C)cc1 | inactive |
| O=C1/C(=C\c2ccco2)SC(=S)N1c1ccccc1 | inconclusive [quencher, partial curve] |
| CC(=O)OC[C@@H]1O[C@@H](O/N=C2/C[C@@H](O)[C@@H](O)[C@@H]3[C@@H]4C(=O)N(C[C@@H]5CCCO5)C(=O)[C@H]4CC[C@H]23)[C@H](OC(C)=O)[C@H](OC(C)=O)[C@@H]1OC(C)=O | inconclusive [falling, full curve, poor fit] |
| Oc1ccc(-c2nc(-c3ccccc3)c(-c3ccc(Br)cc3)[nH]2)cc1 | inactive |
| C=CC[C@@H]1C=C[C@H](O/N=C(\C)CCN2CCc3nc(CC)c(CC)cc3C2)[C@H](CO)O1 | inconclusive [quencher, partial curve] |
| O=C(NCc1ccccc1Cl)c1ccc(Cn2c(SCc3ccccc3)nc3cccnc32)cc1 | inactive |
| Cc1ccc(C(=O)/C=C/C(=O)O)cc1 | inconclusive [falling, partial curve, poor fit] |
| CCCNC(=O)c1ccc(Cl)cc1Cl | inconclusive [rising, partial curve, poor fit] |
| O=C1NC(=S)N/C1=C/c1cc([N+](=O)[O-])ccc1O | inactive |
| N#Cc1c(-n2ncnc2-c2cccc(Br)c2)sc2c1CCCCC2 | inconclusive [quencher, partial curve] |
| O=C(CCn1cnnn1)Nc1cc(C(F)(F)F)cc(C(F)(F)F)c1 | inconclusive [quencher, full curve] |
| CCc1ccccc1NC(=O)C1CCN(c2cnccn2)CC1 | inconclusive [falling, full curve, poor fit] |
| COc1cc(/C=C2\SC(=S)N(NC(=O)c3cccnc3)C2=O)ccc1O | inconclusive [rising, full curve, poor fit] |
| CCc1ccc(NC(=O)C(=O)NCC(c2cccnc2)N2CCN(c3ccc(F)cc3)CC2)cc1 (stereo not drawn) | active: 100 µM [quencher] |
| Cc1cccc(C(C)C)c1NC(=O)C1CCCN1S(=O)(=O)c1cccc2nsnc12 (stereo not drawn) | inconclusive [quencher, partial curve] |
| O=C(Nc1ncccn1)c1cc([N+](=O)[O-])cc([N+](=O)[O-])c1 | inactive |
